# Measured values taken from the supplement of paper PMC3334620.
# Over roughly 33,000 sequences, “E-score (-0.5 to 0.5)” has its median near -0.036; the highest 2% begin near 0.37. The list shows a part of the results.
# Target: T1, Yer064c (UniProt P40041)
# T1 sequence: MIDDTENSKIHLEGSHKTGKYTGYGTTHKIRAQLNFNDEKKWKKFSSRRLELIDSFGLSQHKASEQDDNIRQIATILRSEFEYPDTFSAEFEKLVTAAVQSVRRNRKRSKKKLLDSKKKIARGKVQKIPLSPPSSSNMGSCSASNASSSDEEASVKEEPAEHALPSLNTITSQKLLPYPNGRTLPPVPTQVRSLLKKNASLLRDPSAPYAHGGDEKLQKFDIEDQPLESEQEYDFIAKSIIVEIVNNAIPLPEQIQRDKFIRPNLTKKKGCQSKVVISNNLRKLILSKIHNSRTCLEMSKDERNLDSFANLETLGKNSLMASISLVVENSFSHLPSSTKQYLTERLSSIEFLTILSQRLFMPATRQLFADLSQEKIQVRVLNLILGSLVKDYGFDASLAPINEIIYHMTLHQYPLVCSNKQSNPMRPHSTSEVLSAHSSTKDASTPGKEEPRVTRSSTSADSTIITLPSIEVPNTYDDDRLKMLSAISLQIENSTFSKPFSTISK
# Assay: PBM E-score (8-mer binding enrichment) (E-score (-0.5 to 0.5)); higher = stronger / more preferred TF binding; most listed sequences are background and not binding sites
# Settings: protein concentration: 200 nM; construct: GST-full length
# Method in brief: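 Full-length yeast transcription factors or their DNA-binding domains, GST-tagged and expressed with PURExpress, were applied at about 100-200 nM to universal all-10-mer Agilent arrays. These arrays had been made double-stranded by primer extension on fresh or once-stripped slides. Detection used fluorescent anti-GST, normalisation used masliner, and E-scores for ungapped eight-base words pooled with reverse complements came from the Universal PBM Analysis Suite.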
row,Sequence,PBM E-score
1,CGTTGCAC,-0.129
2,CCGTTTCG,-0.216
3,AATTCGAC,-0.067
4,ACAGTTCG,-0.101
5,CGCACCGA,-0.00675
6,AGAGCGTA,-0.0942
7,CTTGTGCA,-0.112
8,ACCCTACC,-0.0414
9,TACGATGA,0.212
10,CTCTGGGC,-0.0927
11,GCCTTAAC,-0.104
12,CCTGTAGC,-0.0723
13,AGGGGTAA,-0.0851
14,AACCGGGG,-0.0285
15,AACACCGG,-0.00387
16,CGAGGCGC,-0.2
17,GACGCGCA,-0.212
18,AATGACGC,-0.0588
19,CGACGCGC,-0.0907
20,TATCATAA,0.0309
21,CGAACCGC,0.0436
22,ATCGAGAG,-0.0358
23,AGTGAGCA,0.0822
24,GCGCACAC,-0.195
25,CGCAACGC,-0.182

row,Sequence,PBM E-score
1,ACAGTTTA,0.00332
2,GGGGATAC,-0.249
3,GAGCACCC,-0.339
4,CAAGTCAC,0.36
5,CAGATTTC,-0.0533
6,CGGATTAC,0.0966
7,CCTAGAGC,-0.238
8,CACGCCTA,-0.0827
9,GTTTCACA,-0.0585
10,CGTTGGAG,-0.00447
11,GGCTTTCA,-0.0627
12,GCCGCCCA,-0.277
13,GACTGCCA,0.245
14,ACGTGCCC,-0.211
15,AATGAAGG,-0.185
16,AGTCAAAG,0.406
17,ACGCACAA,-0.117
18,CCTCGATA,0.0141
19,GCTTCCTA,-0.141
20,AACAAACG,-0.206
21,AGTCTGGA,0.167
22,GCGGTCCC,-0.234
23,TCTCTACA,-0.0343
24,ATGAAAGC,-0.139
25,TTAGGGAA,-0.0289

row,Sequence,PBM E-score
1,CAGAGAAC,-0.0639
2,AGGCACGA,0.02
3,ATAACGTC,0.0229
4,GCGCTTCC,-0.28
5,GCTTGAAA,-0.125
6,TCGCTTCA,-0.0884
7,GGCAGACA,-0.259
8,GCCCCAAA,-0.26
9,CTTTGTCA,0.022
10,ACCGCAAG,-0.129
11,AGGAATGG,-0.0597
12,GATCATAC,-0.0115
13,AGACTTCC,0.157
14,CGACCTAG,0.0107
15,AATACACC,-0.0713
16,CGACTGGC,-0.00941
17,ATACAAGC,-0.123
18,CAGGGTGG,-0.0658
19,CTGTTGAC,0.127
20,ACATGTGA,0.0466
21,ACTTTATA,0.00037
22,ACGTCCTC,-0.264
23,AGATACGC,-0.268
24,CAAAATAA,0.0314
25,ATTCTACC,0.08

row,Sequence,PBM E-score
1,GATGACCA,0.262
2,ATCTGAGA,0.126
3,CACATATC,0.0805
4,ATTGACTC,0.445
5,ATGTTCGA,-0.0418
6,GTCAGGGA,0.139
7,AGCATAAC,-0.143
8,GCTCGGTA,-0.0582
9,TACGGATA,0.122
10,GAATTGGC,-0.22
11,ATAAACAT,0.0529
12,GTATGCAA,-0.0656
13,AACCGGTA,-0.295
14,CAATCCAC,0.0303
15,TAAGCTGA,0.153
16,ACCGTGTA,-0.0452
17,CTCACCAC,-0.0184
18,CTGAAGAA,-0.0221
19,TAACCTAA,-0.0307
20,TCATATAA,0.143
21,AGCTGCCT,-0.192
22,ATCGAATA,-0.162
23,GTACATCA,0.0356
24,TAAATTCA,0.0168
25,CCACCAGA,-0.0605

row,Sequence,PBM E-score
1,GGGAGAGA,-0.255
2,CTCTAGAA,0.0549
3,CCTTGGGC,-0.276
4,AGCTTTAG,0.0221
5,ACGGTCCG,-0.209
6,GGGCACAA,-0.229
7,GTCGAAGA,0.0215
8,CGACGTAC,-0.072
9,CGTAGACG,0.0186
10,GCGTGTAA,0.044
11,CGCCCTAC,-0.229
12,AACAACTC,-0.182
13,ACTAATTG,0.161
14,CCCATTAG,-0.0867
15,ATATGAGA,0.0697
16,GAACGTGC,-0.327
17,ACGTCGAG,-0.101
18,GAGAGTGC,-0.283
19,CGTGCAAA,-0.103
20,GGCAAACA,-0.233
21,CCAGATCC,-0.372
22,AACCGACT,0.206
23,CGACTGCA,0.253
24,AACAAACC,0.0357
25,AGTGACTA,0.469

row,Sequence,PBM E-score
1,ACAGATGC,-0.101
2,ACCTATAG,-0.163
3,CTCAAGAC,0.118
4,GCAAAAAC,-0.0918
5,AGGCCATG,-0.0831
6,CCTCATAC,-0.153
7,TCAGTAAA,0.186
8,CTCACCCC,-0.00751
9,CGTCCCAA,-0.00756
10,CGCCGCGA,0.0909
11,GTTAACTA,0.153
12,CATCTCCC,-0.0994
13,ATGAAAAT,0.119
14,ATGGCCAC,-0.244
15,TAAGAGGA,0.0965
16,AAAATTAC,0.105
17,CAGTTCAG,0.0732
18,AAGGCGAG,-0.186
19,GTTGAAAA,0.0339
20,CCGTCTAA,-0.0579
21,CTGTAAGA,-0.097
22,AACGGACT,0.113
23,ACGGCACA,-0.0583
24,GTTTATTA,0.148
25,ACATCCAA,-0.107

row,Sequence,PBM E-score
1,GTCCTCCA,-0.006
2,TAATAGTA,0.104
3,ATCGGAAG,-0.0489
4,CCTAGGAG,0.00138
5,GGGCGGAA,-0.148
6,CCGATCAA,-0.0705
7,GGATGAAC,0.00015
8,GTCGGCCA,-0.0323
9,CCCTAAAA,-0.234
10,ACCAAGCG,-0.321
11,TACATGTA,-0.126
12,CCCCCCAC,-0.296
13,CCAGACTA,0.208
14,CCAATTAG,0.0675
15,ATGGGACC,-0.118
16,CTCGGGAA,0.0998
17,CTAGCGCA,-0.0675
18,AGTAACAC,0.19
19,CGCACAAG,0.0388
20,CAGAGCTA,-0.157
21,AAAAGATT,0.122
22,CACATTTC,-0.113
